Reference: a collection of fitness landscapes (doi:10.1016/j.celrep.2020.107928)
Over roughly 81,000 sequences, “one-hybrid fitness for binding NBS DNA” has its median near -0.1; the highest 2% begin near 0.36. This is one part of the list.

B1: Caulobacter ParB omega fusion; a variant is named by its letters at X, in order, B8GW30 (parent)
chain: MESVVVGEPGMSEGRRGLGRGLSALLGEVDAAPAQAPGEQLGGSREAPIEILQRNPDQPRRTFREEDLEDLSNSIREKGVLQPILVRPSPDTAGEYQIVAGERAWRAAQRAGLKTVPIMVRELDDLAVLEIGIIENVQRADLNVLEEALSYKVLMEKFERTQENIAQTIGKSXSHVANXMRLLXLPDEVQSYLVSGELTAXHARAIAAAADPVALAKQIIEGGLSVRETEALARKAPNLSAGKSKGGRPPRVKDTDTQALESDLSSVLGLDVSIDHRGSTGTLTITYATLEQLDDLCNRLTRGI

Variants of: B1
Test: one-hybrid fitness for binding NBS DNA (the Noc-binding site; scaled: cognate 1, non-cognate 0); higher = stronger binding
Settings: with NBS DNA site
In short: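 Pre- and post-selection plasmids were Illumina-sequenced, three replicate libraries were pooled, and any variant with under 10 reads was removed. The libraries were Caulobacter ParB with four specificity codons randomised, selected in E. coli USO through a HIS3 reporter whose site is 19 bp from the promoter. Cells grew 48 hours at 37°C on M9 without histidine, with 0.1 mM IPTG and 5 mM 3-AT. Fitness is the log change in variant-to-wild-type read ratio, rescaled against cognate and non-cognate.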

| Variant | one-hybrid fitness for binding NBS DNA |
| --- | --- |
| LWCR | ≤ 0.2 |
| MSYS | ≤ 0.2 |
| STVF | ≤ 0.2 |
| AWRP | ≤ 0.2 |
| QDWT | ≤ 0.2 |
| LKQS | ≤ 0.2 |
| DRGS | ≤ 0.2 |
| DLNG | ≤ 0.2 |
| RYFL | ≤ 0.2 |
| VCMG | ≤ 0.2 |
| SQVS | ≤ 0.2 |
| SRRG | ≤ 0.2 |
| IMTR | ≤ 0.2 |
| RCQT | 0.513 |
| FFTG | ≤ 0.2 |
| PKQS | ≤ 0.2 |
| MNSA | ≤ 0.2 |
| SIYC | ≤ 0.2 |
| GIME | ≤ 0.2 |
| SQRG | ≤ 0.2 |
| GSTY | ≤ 0.2 |
| RCCF | ≤ 0.2 |
| QADT | 0.287 |
| LYLS | ≤ 0.2 |

| Variant | one-hybrid fitness for binding NBS DNA |
| --- | --- |
| DCQG | ≤ 0.2 |
| MRKM | ≤ 0.2 |
| DLYR | ≤ 0.2 |
| AQAH | ≤ 0.2 |
| IAKI | ≤ 0.2 |
| ERLG | ≤ 0.2 |
| VICA | ≤ 0.2 |
| ETWT | ≤ 0.2 |
| SSAN | ≤ 0.2 |
| RHCK | ≤ 0.2 |
| HKKY | ≤ 0.2 |
| QKAM | ≤ 0.2 |
| HGRI | ≤ 0.2 |
| AVLM | ≤ 0.2 |
| VKYG | ≤ 0.2 |
| DPLG | ≤ 0.2 |
| TRSA | ≤ 0.2 |
| MQQR | ≤ 0.2 |
| NRNL | ≤ 0.2 |
| MRYR | ≤ 0.2 |
| YSSV | ≤ 0.2 |
| KCAR | ≤ 0.2 |
| QMRP | 0.291 |
| LVMD | ≤ 0.2 |

| Variant | one-hybrid fitness for binding NBS DNA |
| --- | --- |
| SGNC | ≤ 0.2 |
| KHPL | ≤ 0.2 |
| RCCN | ≤ 0.2 |
| DCPR | ≤ 0.2 |
| INLR | ≤ 0.2 |
| CINS | ≤ 0.2 |
| VVMY | ≤ 0.2 |
| INDG | ≤ 0.2 |
| YAWT | ≤ 0.2 |
| LPHR | ≤ 0.2 |
| PNAS | ≤ 0.2 |
| QCLM | ≤ 0.2 |
| CLPC | ≤ 0.2 |
| EAEA | ≤ 0.2 |
| YLLG | ≤ 0.2 |
| RNRQ | ≤ 0.2 |
| RDAC | ≤ 0.2 |
| RKVI | ≤ 0.2 |
| QLNP | ≤ 0.2 |
| ELQA | ≤ 0.2 |
| NAQT | ≤ 0.2 |
| PCNI | ≤ 0.2 |
| YGIL | ≤ 0.2 |
| TRQD | ≤ 0.2 |

| Variant | one-hybrid fitness for binding NBS DNA |
| --- | --- |
| PMNA | ≤ 0.2 |
| MNQT | ≤ 0.2 |
| IEHG | ≤ 0.2 |
| RARD | ≤ 0.2 |
| QSDS | ≤ 0.2 |
| KFKR | 0.21 |
| ELLM | ≤ 0.2 |
| KDYA | ≤ 0.2 |
| ENQP | ≤ 0.2 |
| AAYQ | ≤ 0.2 |
| QSKP | 0.229 |
| PAVW | ≤ 0.2 |
| CVPN | ≤ 0.2 |
| SKMT | ≤ 0.2 |
| EDPM | ≤ 0.2 |
| CRNR | 0.259 |
| PQIS | ≤ 0.2 |
| FNDG | ≤ 0.2 |
| LMDC | ≤ 0.2 |
| AETD | ≤ 0.2 |
| PKIS | ≤ 0.2 |
| DNIV | ≤ 0.2 |
| YKSL | ≤ 0.2 |
| RVGV | ≤ 0.2 |

| Variant | one-hybrid fitness for binding NBS DNA |
| --- | --- |
| WITG | ≤ 0.2 |
| PCSY | ≤ 0.2 |
| LTPE | ≤ 0.2 |
| YNYG | ≤ 0.2 |
| YTCT | ≤ 0.2 |
| GFKT | ≤ 0.2 |
| VVVV | ≤ 0.2 |
| HVIT | ≤ 0.2 |
| FTVT | ≤ 0.2 |
| ACHG | ≤ 0.2 |
| TAYN | ≤ 0.2 |
| WRYT | ≤ 0.2 |
| HVPM | ≤ 0.2 |
| QMPL | ≤ 0.2 |
| WAGT | ≤ 0.2 |
| QIDT | ≤ 0.2 |
| NNMS | ≤ 0.2 |
| RTEL | ≤ 0.2 |
| RYFQ | ≤ 0.2 |
| LNTV | ≤ 0.2 |
| GHYN | ≤ 0.2 |
| IPAR | ≤ 0.2 |
| KQNT | ≤ 0.2 |
| HGDG | ≤ 0.2 |

| Variant | one-hybrid fitness for binding NBS DNA |
| --- | --- |
| ESRQ | ≤ 0.2 |
| IFHR | ≤ 0.2 |
| DNPG | ≤ 0.2 |
| PNEG | ≤ 0.2 |
| YRNY | ≤ 0.2 |
| TATL | ≤ 0.2 |
| PLTC | ≤ 0.2 |
| PIYC | ≤ 0.2 |
| LTYR | ≤ 0.2 |
| RAYC | ≤ 0.2 |
| SATT | ≤ 0.2 |
| ARME | ≤ 0.2 |
| VQWS | ≤ 0.2 |
| GPTS | ≤ 0.2 |
| ELQG | ≤ 0.2 |
| WLKQ | ≤ 0.2 |
| DFNS | ≤ 0.2 |
| EVRI | ≤ 0.2 |
| TDAD | ≤ 0.2 |
| LRQT | ≤ 0.2 |
| SRFH | ≤ 0.2 |
| VCNL | ≤ 0.2 |
| CYCL | ≤ 0.2 |
| RKTR | 0.602 |

| Variant | one-hybrid fitness for binding NBS DNA |
| --- | --- |
| MKCL | ≤ 0.2 |
| SMSA | ≤ 0.2 |
| WKFG | ≤ 0.2 |
| NCPT | ≤ 0.2 |
| QGDS | ≤ 0.2 |
| IATR | ≤ 0.2 |
| IRAR | 0.294 |
| SLHD | ≤ 0.2 |
| TEWL | ≤ 0.2 |
| ATKV | ≤ 0.2 |
| VLLE | ≤ 0.2 |
| WRSG | ≤ 0.2 |
| PMNY | ≤ 0.2 |
| NRPC | ≤ 0.2 |
| SAVE | ≤ 0.2 |
| HRPM | ≤ 0.2 |
| LNQD | ≤ 0.2 |
| RWNW | ≤ 0.2 |
| REIE | ≤ 0.2 |
| KGAS | ≤ 0.2 |
| PTVD | ≤ 0.2 |
| EEMR | ≤ 0.2 |
| IRGL | ≤ 0.2 |
| ATPQ | ≤ 0.2 |

| Variant | one-hybrid fitness for binding NBS DNA |
| --- | --- |
| HTPW | ≤ 0.2 |
| QHNN | ≤ 0.2 |
| TPWC | ≤ 0.2 |
| HKIY | ≤ 0.2 |
| HKIR | ≤ 0.2 |
| QELW | ≤ 0.2 |
| DYAT | ≤ 0.2 |
| KRER | 0.368 |
| WTFV | ≤ 0.2 |
| TYPM | ≤ 0.2 |
| RPIA | ≤ 0.2 |
| NMHS | ≤ 0.2 |
| QHYQ | ≤ 0.2 |
| PRDI | ≤ 0.2 |
| QNKG | ≤ 0.2 |
| PCKY | ≤ 0.2 |
| QLIG | ≤ 0.2 |
| MYCS | ≤ 0.2 |
| SECT | ≤ 0.2 |
| FPMV | ≤ 0.2 |
| FATV | ≤ 0.2 |
| IFEL | ≤ 0.2 |
| YYTG | ≤ 0.2 |
| YHST | ≤ 0.2 |

| Variant | one-hybrid fitness for binding NBS DNA |
| --- | --- |
| PSKH | ≤ 0.2 |
| SGRT | ≤ 0.2 |
| VIWL | ≤ 0.2 |
| RQEW | ≤ 0.2 |
| TPAW | ≤ 0.2 |
| PVTM | ≤ 0.2 |
| HVKL | ≤ 0.2 |
| RRCD | ≤ 0.2 |
| KYVC | ≤ 0.2 |
| VVTM | ≤ 0.2 |
| TDIW | ≤ 0.2 |
| LYES | ≤ 0.2 |
| NARC | ≤ 0.2 |
| KFHS | ≤ 0.2 |
| YMVV | ≤ 0.2 |
| VFSR | ≤ 0.2 |
| ARNM | ≤ 0.2 |
| FFWR | ≤ 0.2 |
| PSTM | ≤ 0.2 |
| NFNR | ≤ 0.2 |
| EQHT | ≤ 0.2 |
| YVSG | ≤ 0.2 |
| IFTM | ≤ 0.2 |
| RKIF | ≤ 0.2 |

| Variant | one-hybrid fitness for binding NBS DNA |
| --- | --- |
| HGMS | ≤ 0.2 |
| RTCE | ≤ 0.2 |
| FLNM | ≤ 0.2 |
| LHNT | ≤ 0.2 |
| DSRD | ≤ 0.2 |
| GANM | ≤ 0.2 |
| TAAM | ≤ 0.2 |
| TIMK | ≤ 0.2 |
| GRVL | ≤ 0.2 |
| HCGG | ≤ 0.2 |
| INMR | ≤ 0.2 |
| RLPK | ≤ 0.2 |
| FEDS | ≤ 0.2 |
| LMPS | ≤ 0.2 |
| SENT | ≤ 0.2 |
| SSPQ | ≤ 0.2 |
| QCIS | 0.364 |
| AMDA | ≤ 0.2 |
| KIYA | ≤ 0.2 |
| PKSH | ≤ 0.2 |
| HQYC | ≤ 0.2 |
| ESLT | ≤ 0.2 |
| YGAC | ≤ 0.2 |
| SVIA | ≤ 0.2 |

| Variant | one-hybrid fitness for binding NBS DNA |
| --- | --- |
| DRMG | ≤ 0.2 |
| KNGT | ≤ 0.2 |
| PTMM | ≤ 0.2 |
| VTFK | ≤ 0.2 |
| DKWG | ≤ 0.2 |
| QRVH | 0.387 |
| WHFT | ≤ 0.2 |
| SQVC | ≤ 0.2 |
| LCEC | ≤ 0.2 |
| CILA | ≤ 0.2 |
| RAKA | 0.363 |
| WRTN | ≤ 0.2 |
| PNYV | ≤ 0.2 |
| SDTF | ≤ 0.2 |
| PPLL | ≤ 0.2 |
| DTRT | ≤ 0.2 |
| FCNT | ≤ 0.2 |
| CWSA | ≤ 0.2 |
| RYEK | ≤ 0.2 |
| PERW | ≤ 0.2 |
| HRPG | ≤ 0.2 |
| RYSY | ≤ 0.2 |
| KYNT | ≤ 0.2 |
| MTPK | ≤ 0.2 |

| Variant | one-hybrid fitness for binding NBS DNA |
| --- | --- |
| SDSH | ≤ 0.2 |
| PDHG | ≤ 0.2 |
| EYCR | ≤ 0.2 |
| RFYK | ≤ 0.2 |
| PFLA | ≤ 0.2 |
| GAIL | ≤ 0.2 |
| TLNC | ≤ 0.2 |
| HTHM | ≤ 0.2 |
| ITHL | ≤ 0.2 |
| RTVM | ≤ 0.2 |
| NWST | ≤ 0.2 |
| GTVS | ≤ 0.2 |
| APYI | ≤ 0.2 |
| VMNV | ≤ 0.2 |
| KPPY | ≤ 0.2 |
| QRFG | 0.249 |
| ENYW | ≤ 0.2 |
| QHNI | ≤ 0.2 |
| FHSF | ≤ 0.2 |
| TEMV | ≤ 0.2 |
| PGMS | ≤ 0.2 |
| QGVN | ≤ 0.2 |
| NVAC | ≤ 0.2 |
| GQQF | ≤ 0.2 |

| Variant | one-hybrid fitness for binding NBS DNA |
| --- | --- |
| SARM | ≤ 0.2 |
| HYRT | ≤ 0.2 |
| WGSL | ≤ 0.2 |
| AAQT | ≤ 0.2 |
| DATE | ≤ 0.2 |
| YCSS | ≤ 0.2 |
| VILG | ≤ 0.2 |
| TGVS | ≤ 0.2 |
| YCFS | ≤ 0.2 |
| GLDN | ≤ 0.2 |
| AHFG | ≤ 0.2 |
| ESRH | ≤ 0.2 |
| RKQN | ≤ 0.2 |
| QMRR | 1.02 |
| IRTT | 0.274 |
| CEHT | ≤ 0.2 |
| NYIL | ≤ 0.2 |
| FTDY | ≤ 0.2 |
